Results reported in PMC4336329 (PLoS ONE, 2015).
In all, about 310,000 compounds went through this assay and about 2,200 (0.71%) showed an effect of 50% or more. Effects have a minus sign here. Some of the results follow.

What follows are compounds tested against human ether-à-go-go-related gene (hERG) potassium channel (human, UniProt Q12809) (assay: primary screen, population patch clamp on CHO cells stably expressing hERG).
Sequence of human ether-à-go-go-related gene (hERG) potassium channel (Q12809 whole entry, looked up): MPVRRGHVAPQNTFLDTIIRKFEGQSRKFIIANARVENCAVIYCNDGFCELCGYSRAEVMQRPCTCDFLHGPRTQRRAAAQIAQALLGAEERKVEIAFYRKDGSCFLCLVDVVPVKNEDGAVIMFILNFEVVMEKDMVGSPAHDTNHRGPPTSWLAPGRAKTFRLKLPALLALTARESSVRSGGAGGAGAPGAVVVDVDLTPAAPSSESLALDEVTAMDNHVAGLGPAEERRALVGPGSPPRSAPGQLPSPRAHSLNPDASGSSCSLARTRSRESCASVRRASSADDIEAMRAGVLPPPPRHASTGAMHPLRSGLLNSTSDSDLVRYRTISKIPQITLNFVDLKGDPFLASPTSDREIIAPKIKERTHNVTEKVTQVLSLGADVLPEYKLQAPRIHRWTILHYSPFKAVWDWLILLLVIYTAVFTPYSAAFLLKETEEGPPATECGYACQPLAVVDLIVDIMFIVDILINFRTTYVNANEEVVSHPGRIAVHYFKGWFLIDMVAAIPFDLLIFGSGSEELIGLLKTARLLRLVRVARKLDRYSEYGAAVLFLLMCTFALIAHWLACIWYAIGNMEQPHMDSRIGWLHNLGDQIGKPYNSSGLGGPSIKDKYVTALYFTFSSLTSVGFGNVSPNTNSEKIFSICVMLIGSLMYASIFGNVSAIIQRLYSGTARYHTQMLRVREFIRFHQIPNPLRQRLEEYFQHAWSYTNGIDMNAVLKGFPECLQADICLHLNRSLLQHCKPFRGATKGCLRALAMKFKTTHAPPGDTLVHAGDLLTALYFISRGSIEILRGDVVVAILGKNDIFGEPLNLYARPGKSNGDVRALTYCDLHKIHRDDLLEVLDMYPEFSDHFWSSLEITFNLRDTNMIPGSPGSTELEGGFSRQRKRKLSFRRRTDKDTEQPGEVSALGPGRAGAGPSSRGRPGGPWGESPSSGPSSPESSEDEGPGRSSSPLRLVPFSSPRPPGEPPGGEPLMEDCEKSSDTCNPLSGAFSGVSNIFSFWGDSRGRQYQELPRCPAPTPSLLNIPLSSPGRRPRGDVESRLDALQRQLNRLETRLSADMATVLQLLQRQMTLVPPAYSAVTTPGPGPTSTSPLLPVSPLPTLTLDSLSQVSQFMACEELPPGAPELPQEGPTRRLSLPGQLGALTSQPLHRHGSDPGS

Row | Structure (SMILES) | hERG current change (%, negative = inhibition) at 1uM
1 | CN1CCN(Cc2oc(CO)cc(=O)c2O)CC1 | 6.31%
2 | O=C(c1ccc(Cl)cc1)N1CCc2ccccc21 | -3.3%
3 | O=C(Cn1nnc(-c2ccc(Cl)cc2)n1)N1CCN(C(=O)c2ccco2)CC1 | 1.64%
4 | Cc1cc(C(F)(F)F)nn1-c1nc(-c2ccco2)cc(C(F)(F)F)n1 | 2.88%
5 | COc1ccc(N2CCN(C(=O)C3CCN(C(=O)c4cccc(Cl)c4)CC3)CC2)cc1 | 3.92%
6 | CCN(CC)S(=O)(=O)c1ccc(OC)c(NC(=O)CCS(=O)(=O)Cc2ccccc2)c1 | 12.4%
7 | CCN(CC)C(=O)C1CCCN(c2ccc([N+](=O)[O-])cc2/C=N/NC(=O)c2cccc(Br)c2)C1 (centres unmarked) | 6.97%
8 | Cc1ccc(C(=O)N2CCCN(c3nc4cc5c(cc4cc3C#N)OCO5)CC2)cc1 | 15.9%
9 | CCN(C(=O)COc1cccnc1[N+](=O)[O-])C1CCS(=O)(=O)C1 (centres unmarked) | 7.81%
10 | CCOC(=O)[C@@H]1[C@H]2COc3ccc(Br)cc3[C@@H]2N2C(=O)N(c3ccc(C(F)(F)F)cc3)C(=O)[C@@]12C | 7.49%
11 | Cc1cc(C)c(OCC(=O)OCC(=O)N2CCc3ccccc3C2)c(C)c1 | 11.6%
12 | COc1ccc(C(c2c(NC(C)=O)sc3c2CCCC3)N2CCN(CCO)CC2)cc1OC (centres unmarked) | 8.62%
13 | CCN(C(=O)CCS(=O)(=O)c1cccc2nsnc12)c1cccc(C)c1 | 8.98%
14 | Cc1ccc2ccc(C)[n+](CCCS(=O)(=O)[O-])c2c1 | 13.9%
15 | O=C(CNC(=O)c1ccccc1F)NCCN1C(=O)S/C(=C\c2ccc3c(c2)OCO3)C1=O | 2.45%
16 | Cc1c(C(=O)N(C)C)c2ccc(Cl)cc2n1O | 11.5%
17 | CC(=O)/C=C(\C)Nc1c(C)n(C)n(-c2ccccc2)c1=O | 11.1%
18 | Cc1nc(N2CCOCC2)c2c(C)c(C(=O)Nc3ccc(F)cc3Cl)sc2n1 | 13.8%
19 | COC(=O)c1ccccc1OCCCOc1ccc(C=O)cc1OC | 5.43%
20 | Cc1nc(C)c(/C(O)=C/c2nc3ccccc3oc2=O)s1 | 13%
21 | CCc1ccc(OCc2nnc(SCCN3CCOCC3)n2CC)cc1.O=C(O)C(=O)O | -5.65%
22 | O=C1C=C(c2ccccc2)CC(/C=C/c2ccccc2)C1 (centres unmarked) | 9.67%
23 | Clc1ccc2nnnc(-c3ccccc3)c2c1 | 8.12%
